# Experimental data reported in the supplement of paper PMC3724861.
# The other results are listed elsewhere or left out.
# Test system: T1, Caupolican (Caup) homeodomain DNA-binding domain
# T1 sequence: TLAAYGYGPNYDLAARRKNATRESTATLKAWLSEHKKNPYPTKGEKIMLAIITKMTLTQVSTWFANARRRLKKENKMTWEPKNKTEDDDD
# Test: PBM E-score (8-mer, recovered from the published 9-mer minima) (E-score (dimensionless, -0.5 to 0.5)); Drosophila protein; higher = stronger relative binding preference, active = 0.31 or more
# Method: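 Protein binding microarray (PBM): in vitro transcribed/translated Caupolican (Caup) homeodomain DNA-binding domain (residues 214-303) applied at 100 nM to a universal 8-mer PBM array (Agilent AMADID 015681). The 8-mer enrichment score (E-score, range -0.5 to 0.5) was computed, and each 9-mer score is the minimum E-score of its two constituent 8-mers. The E-score is the same for a 9-mer and its reverse complement; 0.31 is the stated binding threshold.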
row,Sequence,PBM E-score
1,GCCGCAGC,inactive: -0.204
2,CTTTGAGC,inactive: -0.207
3,CTCTTAAG,inactive: -0.0965
4,AGTCGCCA,inactive: -0.173
5,ATCCCCGG,inactive: -0.117
6,CGAAGACC,inactive: -0.0172
7,CATCGTCG,inactive: -0.0502
8,ACTGCACA,inactive: 0.0535
9,ATGCCCAT,≥ -0.0245
10,ATAGGTCG,inactive: -0.0592
11,ACACAAGG,inactive: 0.158
12,GGGAAGAA,inactive: -0.072
13,CATTATTC,inactive: 0.127
14,TCCTTCCA,≥ -0.048
15,ATCCTGCG,inactive: -0.122
16,CGAATCGC,inactive: -0.0913
17,AGGGTGAT,≥ 0.0141
18,CTCACCGC,inactive: -0.134
19,GCACCCGC,inactive: -0.149
20,AGTTAATA,inactive: 0.178
21,AGACAGCT,inactive: -0.0192
22,AGACCTCT,inactive: -0.19
23,ACGCCTTC,inactive: -0.0929
24,ATAGGTAA,inactive: 0.0794
25,CACGAATG,inactive: 0.14
26,CTTGAGAC,inactive: -0.14

row,Sequence,PBM E-score
1,CATGACCG,inactive: 0.0138
2,CGCAAAAC,inactive: 0.00757
3,ACTGCACT,inactive: -0.0303
4,ATGAATGC,inactive: 0.0723
5,TCGCTACA,inactive: 0.21
6,ACCGGCGT,≥ -0.0479
7,ATGACAAT,inactive: 0.274
8,CTCATAAC,inactive: -0.00553
9,CAGGCTGA,inactive: -0.114
10,GAATGCTC,inactive: -0.112
11,CGCCTCTC,inactive: -0.271
12,TAAAGACA,inactive: 0.174
13,CCACCAAC,inactive: -0.0531
14,TGCTCCAA,inactive: 0.02
15,ATCACAGG,inactive: 0.0483
16,ACATGAAC,active: 0.372
17,CAAGCGCA,inactive: 0.0953
18,CTTCTGAC,inactive: 0.0331
19,ACGAGCTG,inactive: 0.0659
20,CCATAGGC,inactive: -0.179
21,ACTCAGCC,inactive: -0.171
22,CCGTGCTA,inactive: 0.00141
23,ATACGTAG,inactive: 0.152
24,GTTCTGCA,inactive: 0.0113
25,AAATTTAA,inactive: 0.0777
26,GAGCATAA,inactive: -0.00375

row,Sequence,PBM E-score
1,AATTTCTG,inactive: 0.00278
2,ATGCTACG,inactive: 0.124
3,AAACGTAC,inactive: 0.162
4,CCCAGTCG,inactive: -0.219
5,TCTCGTAA,inactive: 0.145
6,GTATTCAC,inactive: 0.121
7,ACATACGC,inactive: 0.139
8,ATGATACA,inactive: 0.295
9,AAATACTT,inactive: 0.1
10,GGCGTAAC,inactive: -0.0448
11,CGAGGTAA,inactive: -0.0814
12,CTTAGGTA,inactive: 0.0422
13,AACGACTA,inactive: 0.153
14,AGAGACCA,inactive: -0.0887
15,AACCCGCT,inactive: -0.132
16,ACTGAATA,≥ 0.129
17,ATAAACAG,inactive: 0.147
18,CGGTTATC,inactive: -0.0149
19,GGTAGATA,inactive: 0.0131
20,TAACTAGA,≥ 0.158
21,AATAATGG,inactive: -0.0161
22,CAATCACG,inactive: 0.101
23,TGTAAGAA,inactive: 0.246
24,AAACAGTT,inactive: 0.0695
25,GATTGGCC,inactive: -0.144
26,GCTACAGC,inactive: 0.00194

row,Sequence,PBM E-score
1,ACTGCCGA,≥ -0.0979
2,CACACAAC,inactive: 0.14
3,ATGCTGCA,≥ 0.0786
4,ACTTTTCT,inactive: 0.0217
5,GCCCCCCA,inactive: -0.383
6,AGTTGCAA,inactive: 0.115
7,AAGACTCA,inactive: 0.0289
8,AGTAGCAT,inactive: 0.0961
9,AAACTTGA,inactive: -0.0364
10,ACGCACTC,inactive: -0.0124
11,AACGTGTG,inactive: 0.111
12,ATGCTAAG,inactive: 0.00253
13,AAGAGCCT,≥ -0.0548
14,ATATTGTC,inactive: 0.219
15,CAGACACG,inactive: 0.164
16,GCCCAACC,inactive: -0.0162
17,CTCCAATC,inactive: -0.117
18,CTCGGAGA,inactive: -0.209
19,ATATCTAA,inactive: 0.18
20,AAATCGGG,inactive: -0.11
21,TCTTAAGA,inactive: -0.032
22,GATACAGC,inactive: 0.0929
23,CTGATTGC,inactive: -0.00533
24,ACGCTCAC,inactive: -0.0193
25,GTCAGATA,inactive: 0.0913
26,CTAATCTA,inactive: 0.113

row,Sequence,PBM E-score
1,CTGCTGAC,inactive: -0.0459
2,GAACACGC,inactive: 0.254
3,ATCATAGC,inactive: 0.0632
4,AGAACAGC,inactive: 0.0474
5,GAACTACC,inactive: 0.0628
6,AAACCATG,inactive: 0.146
7,TGACGTCA,≥ 0.0555
8,GTCCTAGA,inactive: -0.0212
9,ACGCGGCG,inactive: -0.153
10,GACGATCC,inactive: -0.0421
11,ACCTTTCA,inactive: -0.0249
12,AAGTGCCC,inactive: -0.126
13,CTATGGGA,inactive: -0.0218
14,AACTTTTG,inactive: 0.123
15,GGCTATAC,inactive: -0.0714
16,CTAGCCAG,inactive: -0.164
17,CAGCATTA,inactive: 0.126
18,AAGCACAA,≥ 0.124
19,AATCTCGC,inactive: -0.0304
20,CTACAAAC,inactive: 0.114
21,CCTCAACG,inactive: -0.112
22,GACCCCCA,inactive: -0.371
23,ATCATTCC,inactive: 0.0629
24,CTTCGTAC,inactive: -0.0255
25,ACCTAACT,inactive: 0.118
26,AGGTGAAC,inactive: 0.0123

row,Sequence,PBM E-score
1,GAATCCGA,inactive: 0.0448
2,GATGTGGA,inactive: 0.0997
3,AGACCAAA,inactive: -0.101
4,CTATACTA,≥ 0.219
5,CAAACATA,inactive: 0.292
6,ACGTGATC,inactive: 0.129
7,ATGTTCGG,inactive: 0.244
8,GCAATTAA,inactive: 0.0581
9,AAGGAGAG,inactive: -0.153
10,AAACGTAG,inactive: 0.0552
11,AAGGACTC,inactive: -0.00964
12,ATTAGCGC,inactive: 0.0167
13,ACCCGCCT,inactive: -0.135
14,AACAGTTG,inactive: 0.0731
15,TCGAGCCA,inactive: -0.096
16,ACCTTTTG,inactive: -0.0922
17,AGTGAGGG,inactive: -0.172
18,CGGAAACG,inactive: -0.0861
19,CTCCAGTC,inactive: -0.121
20,GTACGCGA,inactive: 0.0403
21,GCTATCAC,inactive: -0.0224
22,TCTCAGCA,inactive: -0.0623
23,ATATCCGG,inactive: 0.0333
24,CCTGGTTA,inactive: 0.0806
25,ACAAATTG,inactive: 0.247
26,CGACCGAC,inactive: -0.023

row,Sequence,PBM E-score
1,TGGGCGAA,≥ -0.0696
2,GAACCGGA,inactive: -0.0422
3,TATTCGGA,inactive: 0.0441
4,GAACGCAC,inactive: -0.0368
5,ACGTCCTA,inactive: -0.0249
6,CAAAGACA,inactive: 0.145
7,AGTAATCA,inactive: 0.168
8,AGGATGCA,inactive: -0.0185
9,TACGCACA,inactive: 0.0359
10,CAGTCGGG,inactive: -0.145
11,CCACTCGC,inactive: -0.129
12,ACAAATAA,inactive: 0.241
13,CGCTGGGC,inactive: -0.236
14,AGGTCCGC,inactive: -0.229
15,CGATCGCA,inactive: 0.0422
16,ATGCAGGG,inactive: -0.141
17,GGACCTGA,inactive: -0.0838
18,AAAGCTAA,inactive: 0.0223
19,CTCTGAAC,inactive: -0.0015
20,CGGATGAC,inactive: -0.0842
21,CGCATTGA,inactive: -0.0262
22,ATTCAGGG,inactive: -0.0511
23,CGCTTGAC,inactive: -0.0318
24,GACCCTAA,inactive: -0.0674
25,GAGTTTAA,inactive: -0.0073
26,CGTATTAC,inactive: 0.0808

row,Sequence,PBM E-score
1,CCTGCTGA,≥ 0.0216
2,CCCCTCTA,inactive: -0.134
3,AAGGTCAC,inactive: -0.0469
4,TCAGAAAA,inactive: 0.0467
5,GAGCAAGC,inactive: -0.118
6,AACTACAG,inactive: 0.177
7,ACTTCTTC,inactive: -0.00485
8,AGGGGGAA,inactive: -0.219
9,AATCTAGT,inactive: 0.0691
10,CACCAGGA,inactive: -0.0674
11,CTCAGCAG,inactive: -0.0586
12,CGTTCACA,inactive: 0.138
13,CCGAACAA,inactive: 0.242
14,AAGGTTGA,inactive: 0.0447
15,CGCCCTCC,inactive: -0.285
16,AGCGGGCC,inactive: -0.23
17,GCCAGGGC,inactive: -0.227
18,AAGGACTA,inactive: 0.0433
19,CTCTGCCC,inactive: -0.181
20,TACGGTGA,inactive: 0.0565
21,CGAGGGGC,inactive: -0.252
22,ATTAGTTC,inactive: 0.154
23,ACCTTTCC,inactive: -0.00757
24,CCCACTCG,inactive: -0.191
25,CAAACTCA,inactive: 0.0685
26,ACCGTCAG,inactive: -0.217

row,Sequence,PBM E-score
1,CGCCAATC,inactive: -0.0987
2,TAGGCTGA,inactive: -0.0285
3,AAAAGTTG,inactive: 0.0596
4,TAGGGCCA,inactive: -0.205
5,CATATATG,inactive: 0.163
6,CGCAGGAC,inactive: -0.0855
7,CAGCCGGG,inactive: -0.15
8,GTGACGGA,inactive: -0.0386
9,ATACAGCA,≥ 0.201
10,CGCTCTAA,inactive: -0.103
11,GACGAGAC,inactive: -0.00613
12,AATGTCAT,inactive: 0.242
13,AAAAGACT,inactive: -0.0343
14,GGCCCTGA,inactive: -0.113
15,TATGTTAA,active: 0.314
16,CGCGACTA,inactive: -0.0384
17,ATGCTCCC,inactive: -0.0751
18,GTTTTCCA,inactive: 0.163
